# The supplement of paper PMC3334620
# Whole data set: some 33,000 sequences, median “E-score (-0.5 to 0.5)” near -0.012, cut for the highest 2% near 0.29. The list shows a part of the results.
# Biological target: T1, Ybr033w (UniProt P38073)
# T1 sequence: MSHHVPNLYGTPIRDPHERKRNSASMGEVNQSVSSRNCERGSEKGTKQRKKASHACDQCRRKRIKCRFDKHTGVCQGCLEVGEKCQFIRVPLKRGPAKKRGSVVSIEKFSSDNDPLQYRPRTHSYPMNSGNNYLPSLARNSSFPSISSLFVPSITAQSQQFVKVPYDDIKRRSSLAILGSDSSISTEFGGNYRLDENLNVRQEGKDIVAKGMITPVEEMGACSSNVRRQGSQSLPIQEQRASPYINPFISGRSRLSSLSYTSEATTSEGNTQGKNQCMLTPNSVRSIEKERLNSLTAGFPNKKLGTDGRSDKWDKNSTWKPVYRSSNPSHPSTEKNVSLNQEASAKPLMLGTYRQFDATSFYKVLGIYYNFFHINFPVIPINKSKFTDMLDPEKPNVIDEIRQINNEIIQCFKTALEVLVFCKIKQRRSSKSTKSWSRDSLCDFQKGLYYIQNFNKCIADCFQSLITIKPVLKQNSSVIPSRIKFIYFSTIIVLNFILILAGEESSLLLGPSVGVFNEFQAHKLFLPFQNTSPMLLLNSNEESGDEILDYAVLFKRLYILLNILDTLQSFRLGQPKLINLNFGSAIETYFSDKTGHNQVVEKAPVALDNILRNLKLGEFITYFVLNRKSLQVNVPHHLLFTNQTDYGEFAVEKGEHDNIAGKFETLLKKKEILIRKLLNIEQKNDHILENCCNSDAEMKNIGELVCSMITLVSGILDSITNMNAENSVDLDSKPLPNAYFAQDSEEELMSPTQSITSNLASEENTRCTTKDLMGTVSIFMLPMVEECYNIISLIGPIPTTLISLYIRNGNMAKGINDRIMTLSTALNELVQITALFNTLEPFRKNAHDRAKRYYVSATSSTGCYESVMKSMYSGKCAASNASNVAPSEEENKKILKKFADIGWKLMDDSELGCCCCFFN
# Assay: PBM E-score (8-mer binding enrichment) (E-score (-0.5 to 0.5)); higher = stronger / more preferred TF binding; most listed sequences are background and not binding sites
# Conditions: protein concentration: 200 nM; construct: GST-full length
# How it was run: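 Universal all-10-mer Agilent arrays, double-stranded by primer extension on fresh or once-stripped slides, were probed with about 100-200 nM GST-tagged yeast transcription factors made by PURExpress. Fluorescent anti-GST detected bound protein, and masliner normalised the scans. E-scores from the Universal PBM Analysis Suite were given to each ungapped eight-base word pooled with its reverse complement.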
row,Sequence,PBM E-score
1,ATTCTAAC,0.0811
2,GTAATAGA,0.17
3,CGTCTCAA,0.162
4,AAAGAAAA,0.272
5,CCCCTTAC,-0.27
6,AGTATACG,0.0864
7,AATTTACA,0.134
8,ATAACATC,0.204
9,CAATAGCA,-0.00585
10,ACTACGCC,-0.159
11,CTTACCAC,-0.105
12,AATAACCA,0.239
13,AATACAAC,0.271
14,GAGGAATC,0.0289
15,ATGATTAC,0.175
16,AAATAAAA,0.233
17,AGCCAGTA,-0.161
18,ACATTCAG,-0.0265
19,TAGATATA,0.0906
20,TCGGGCAA,0.00269
21,GTTGCGAA,0.0149
22,GTCGGTAA,-0.166
23,AGACAGCG,-0.215
24,CGCACGGC,-0.104
25,ATATAAAC,0.142

row,Sequence,PBM E-score
1,GGGTTTAA,0.113
2,AGTCGGCC,-0.224
3,CATGAGGA,0.0386
4,CCCCACGA,-0.156
5,GACATTAA,0.166
6,TCCACGAA,0.208
7,TACAGCTA,-0.17
8,CGACTTGC,-0.0989
9,ACGCAAAT,0.0741
10,GTGAGGAA,-0.00376
11,ACAATGAT,0.0257
12,CGTGAAAC,-0.137
13,ATGTTGAA,0.216
14,AGTTTCAA,0.117
15,CTCAATGC,-0.0435
16,AACGATGC,-0.167
17,AAACGAGT,0.193
18,AGCTCCTC,-0.233
19,CCGTGCCC,-0.237
20,CTCACGTC,-0.252
21,AAAATATG,0.299
22,GAAACGAA,0.188
23,CGGGACTA,-0.23
24,GAAGTGAC,-0.0703
25,CCACATGA,0.00689

row,Sequence,PBM E-score
1,CCCAATTA,0.074
2,CGAAGGGC,-0.194
3,ATGCTTCG,-0.0313
4,CGTGTGTC,-0.243
5,GCCAATTA,0.0522
6,ACGTTTAG,0.068
7,ACAGGATC,-0.103
8,CAGGACCG,-0.102
9,CGGGCTCC,-0.345
10,AAATGATC,0.328
11,CTACAGGA,0.16
12,CTTATCAC,-0.0454
13,GGATGCGA,-0.0739
14,ATTCCATC,0.237
15,ACCCTATA,-0.0436
16,AGGAAACT,0.113
17,AAAGATAA,0.299
18,CGGGCGGA,0.00224
19,GGCCTTAC,-0.186
20,ACCCGGAA,0.236
21,CAAAATTC,0.308
22,GTCTAGAA,0.129
23,TATTTAGA,0.24
24,CTGAAGGC,-0.256
25,CATCCCCG,-0.0676

row,Sequence,PBM E-score
1,ATGATAGC,0.248
2,AAGAATTA,0.23
3,AAAGCCCA,0.0491
4,GAAAGTCA,0.0267
5,AATGCACT,0.0697
6,CCATTGTA,0.17
7,TACAAGCA,0.189
8,TGCCGACA,-0.0146
9,CCCGAAAC,0.0496
10,ACGTATAT,0.156
11,ATCTGGTC,-0.00999
12,GACAAACA,0.116
13,TGATGCAA,0.081
14,GGGCTTCA,-0.312
15,CAAACGCG,0.162
16,ATAGTCAG,0.133
17,AACGCGAC,-0.159
18,ATTACCTC,0.0406
19,AATTAACG,0.233
20,GCGTTAGA,-0.0446
21,ATGCAAAG,0.187
22,CGACCTCG,-0.0938
23,ACAATAAT,0.341
24,CACTCCTG,-0.134
25,ACTGAAGC,0.117

row,Sequence,PBM E-score
1,TCACGAGA,-0.0537
2,GCACCAGA,-0.218
3,CCGCTTTC,-0.13
4,AGCCGCAA,-0.143
5,AGGAAGTG,0.0598
6,GTACGTGA,0.0204
7,GCGTCTTA,-0.0256
8,GGCTGAAC,-0.135
9,ATGAAATG,-0.0179
10,CCGACACC,-0.313
11,ACGACGTA,0.0878
12,GCGCAACA,-0.0911
13,CCGGTAAC,-0.112
14,AACTACCT,0.0764
15,ATACGGTG,0.043
16,ATCAACAA,0.257
17,ACGATGCC,-0.366
18,ATAAGTTG,0.119
19,CTAAAGCC,-0.09
20,ACTTGACG,-0.142
21,AAGGCCTA,-0.103
22,CTTTGCGA,-0.00836
23,ACCCTCTG,-0.127
24,CGTGTTAG,0.0687
25,GAAAGGTC,-0.163

row,Sequence,PBM E-score
1,GCATGTTA,0.111
2,CTAGTTTA,0.0146
3,CATTTACA,0.197
4,CGCGCTTA,0.094
5,AAAGTGGA,0.0854
6,ACTCATAT,0.141
7,AGGACGAG,-0.178
8,GGTTGATA,0.145
9,GAGAGGCC,-0.251
10,AATTGTGT,0.0367
11,TAGACAAA,0.0827
12,CCAGGCCA,-0.27
13,AATGTTCG,0.0248
14,CCGTCCCC,-0.424
15,ATCTCTAG,-0.0891
16,ATACTTTA,0.23
17,CTGCATAC,0.0438
18,CGGTACCC,-0.332
19,CCCAGCAG,-0.0407
20,CCGCATGC,-0.263
21,AACTGGCA,-0.0894
22,AACTCAAT,0.0866
23,GCGAATAC,-0.0873
24,AACAATGG,0.037
25,CAAGTTAA,0.068

row,Sequence,PBM E-score
1,TTCCCCAA,-0.178
2,ACTATACT,0.173
3,AAATAGCT,0.0379
4,GTGCGCTA,0.0193
5,CCCATTTC,-0.266
6,CACGCTTC,-0.392
7,CTGTTCAA,0.124
8,CTATCATA,0.099
9,AAACGACT,-0.0113
10,TATTTTGA,0.115
11,CAGCATCA,0.029
12,GCCATTTA,-0.0426
13,GCATGCCA,-0.156
14,ATGGGAAT,0.0234
15,TCGTCCAA,0.0311
16,CAAAGGCA,-0.0186
17,GGCCATTA,0.0667
18,CAGTTGGC,-0.113
19,ACGCGATA,-0.123
20,CACATACG,-0.14
21,CGTGTACC,-0.102
22,CGGTCTGA,-0.075
